# Read counts are not given, so values of variants with three or more changes are uncertain.
# B1: LINE1-full (parent)
# chain: UACGUAGGUGGUUUUCCCCUGAUAGUGCUAAGGGGGCCUGGAAGUUUGGACUGGGCAGAGCUCAACACAGCGUGGCAAAGUGGCUGUGGCUAGACUGCCUCUCUGGAUUCCUCGUCACUCAGCAGGGCAUCUCUGAGAGAAAUGCC
# Variants of: B1
# Test: self-cleavage, relative activity (ratio to wild type); higher = more cleavage; in vitro, sequencing; the parent is a self-cleaving ribozyme
row,Variant,self-cleavage
1,A22U A67G U96C G114A,0.06
2,A22U A67U A117G,0
3,A22U A77U C110U,1.35
4,A22U A78G U102C U104A A140G,1.13
5,A22U A78G U130A,1.08
6,A22U A94G U108C C131A,0.55
7,A22U A117G U132C,0.98
8,A22U A136G A141G,2.45
9,A22U C63U A67G,0.19
10,A22U C63U A124G,0.19
11,A22U G25A A69G U134C,0
12,A22U G25U A121G,1.03
13,A22U G32A U47C U96A,0.07
14,A22U G35A A43G G97A,0.06
15,A22U G35A A78G C99U U112C A140G A141G,0.21
16,A22U G40A C111A,0.61
17,A22U G54A A69U,0.05
18,A22U G72A A141G,1.55
19,A22U G75C A79G,0.59
20,A22U G83A U100C,1.3
21,A22U G127A A138G,1.31
22,A22U U23C A79G A92G,0
23,A22U U23C U91C,0.37
24,A22U U26A U29C U52A A79G,1.49

row,Variant,self-cleavage
1,A22U U26C G54A U85A U115C,0.04
2,A22U U26C G58U U115C A136U A141C,0
3,A22U U26C U109A,1.53
4,A22U U26G U100C A129U,1.09
5,A22U U29C U73C A117G,1.67
6,A22U U29C U73C U132C,0.77
7,A22U U39A A79G U96C A124G,0
8,A22U U39G A124G,0.91
9,A22U U45C G125C A136U,1.64
10,A22U U46C C113U A121G A124G,0.75
11,A22U U47A G74A A129U A138G,0.65
12,A22U U52C U134A A140G U143C,0.32
13,A22U U52G C128G A129G C131G,1.79
14,A22U U62C G122A,0.04
15,A22U U73A U102A,0.99
16,A22U U73C U100C A138G U143C,2.87
17,A22U U81A U100C U132C A142G,0
18,A22U U85C A141G,0.11
19,A22U U85C U112C,0
20,A22U U91A A129U,0.76
21,A22U U112C U130C,0.84
22,A22U U115C U134G,1.2
23,U23A A24G A64G A94G,1.15
24,U23A A30G A31C U102C C113G,0.74

row,Variant,self-cleavage
1,U23A A42U A94G A136C,0.11
2,U23A A43G A107G,2.45
3,U23A A50G U100A C113A U132A,0.4
4,U23A A50U A65U A107G A121G,0.12
5,U23A A57G G72A A79U A138G,1.66
6,U23A A64G U115C,0.45
7,U23A A64U A140G,0.49
8,U23A A69U U96C,0.03
9,U23A A77U U112A,1.13
10,U23A C38U U73C A124U,1.98
11,U23A C71A U115C U119G,0.53
12,U23A C71U C90A G137U U143C,0.02
13,U23A G32A A43U A79G U115C,1.65
14,U23A G40U G83A,0.21
15,U23A G49A U52A,1.61
16,U23A G54A U108C U130C,0.84
17,U23A G82A U100A A136G,1.16
18,U23A U26C G27A U87A,0.03
19,U23A U39A U96C,0.08
20,U23A U39C U62C,0.3
21,U23A U47A U134A,1.17
22,U23A U62C A78G U115C,0
23,U23A U85C C98U U109C,0.17
24,U23A U87A U115A A121U A129U A136U,0.14

row,Variant,self-cleavage
1,U23A U109C A124G U134C,0
2,U23C A24C A64G A65G,0
3,U23C A24U U45C A142G,1.43
4,U23C A30G A57C A141G,0
5,U23C A30G A69U,0.12
6,U23C A31U A140G,0.77
7,U23C A31U C68U A77G,0.25
8,U23C A42G A64U G72A U132A G135C,0.39
9,U23C A42G G74A U100A A142G,1.39
10,U23C A42G U73A,1.8
11,U23C A43G A140G,1.11
12,U23C A43U U132C,2.01
13,U23C A50G G106U,0.89
14,U23C A57G A129G U134C,0.92
15,U23C A57G A138G,1.53
16,U23C A57U A59U,0.09
17,U23C A64C A77U,0.48
18,U23C A64G A69G G88U,0
19,U23C A64G U119A,0.61
20,U23C A65G A69U,0.05
21,U23C A65U A77U U115A,0.26
22,U23C A67U U102A,0
23,U23C A69G A142G,1.62
24,U23C A77G A138G,2.89

row,Variant,self-cleavage
1,U23C A77U U112C U134C A138G A142G,1.53
2,U23C A78G G114A,1.22
3,U23C A79U U96A U102C,0.39
4,U23C A92G A141C,0.29
5,U23C A94C A107U U109C A142G,0
6,U23C A94G A140C,0.29
7,U23C A121G A142G,1.34
8,U23C A140G G144A,1.51
9,U23C C71U A107U A121G,0.93
10,U23C C99U U115C A138U,1.39
11,U23C G35U G54A A107G U115A,0.32
12,U23C G35U U62C A94G U100C,0
13,U23C G49U A59G A140G A142G,0.14
14,U23C G55A U100C,0.17
15,U23C G58U A69G U115C,0.31
16,U23C G75A G89U U100A U115A,0.05
17,U23C G83A G144A,0.91
18,U23C U26A A121U,0.86
19,U23C U26A G33A,1.05
20,U23C U29A C63U U87C U100A U132C,0.17
21,U23C U29C U52C A69U G70U A77G,0.1
22,U23C U29C U130C,2.07
23,U23C U29C U143C,1.53
24,U23C U46A A64G G86U U132C,0.06

row,Variant,self-cleavage
1,U23C U46A U81A,2.17
2,U23C U52A A107G,1.93
3,U23C U62C A77G A138G,0
4,U23C U73G U134C,0.32
5,U23C U87A U134C,0
6,U23C U87C A140G,0
7,U23C U96A A121C,0
8,U23C U96A A140G,0.13
9,U23C U100A A138G,1.26
10,U23C U100C A136G,1.43
11,U23C U100C U130A,2.58
12,U23C U112A U115C,0
13,U23C U115C U132C U134C,1.62
14,U23C U119A A138G,1.62
15,U23C U132C C146U,1
16,U23G A24G A69G,0
17,U23G G36A A69U A141G,0.04
18,U23G U26A U62C U73A C103A,0.03
19,U23G U52A U96G,0
20,U23G U87C U130C,0.56
21,A24C A78G U143G,1.39
22,A24C A79G A138G,0.68
23,A24C C128U U132C,1.5
24,A24C G82A A142G,1.66

row,Variant,self-cleavage
1,A24C U96C U100C,0.61
2,A24G A30G A43G U119A,1.62
3,A24G A30G A77G,0.51
4,A24G A30G A79G A141G,1.27
5,A24G A31G A77C G106A,0.55
6,A24G A31G A117G A138G,0.84
7,A24G A31G U91A A140G,0.66
8,A24G A42G A69C C113A U115A,0.18
9,A24G A42G A136G,1.92
10,A24G A42U U81A A142G,2.04
11,A24G A43C A65U U100A A140G A142G,0.15
12,A24G A43G A94G,0
13,A24G A43G U62C C123U,0.19
14,A24G A43G U91A A138G,0
15,A24G A43G U112C,1.02
16,A24G A43U U100C U109C,0
17,A24G A50G A121U,1.53
18,A24G A50G A140G,0.92
19,A24G A50G U52A,0.95
20,A24G A57U U81C A142G,1.15
21,A24G A59G A78U G89A,0.05
22,A24G A59G U73A,0.3
23,A24G A64G A117G,0
